Measurements reported in the supplement of paper PMC4967469.
Lines with a small IC50 respond at low doses; fits outside the tested doses are given as limits. AUC sums up the same curve from the lowest dose to the 256-fold higher top dose: 1 means no effect, lower means more sensitive. For some assays here: An inferred top dose is not printed in the source and was worked back from the curve model.

Columns and labels:
Assay in all cases: Viability of human cancer cell lines after 72 h of drug (GDSC screen)
[1] = compound: CC(C)(C)c1nc(-c2cccc(NS(=O)(=O)c3c(F)cccc3F)c2F)c(-c2ccnc(N)n2)s1 [Dabrafenib]; conditions: top dose 10 µM
Experimental: (§1)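 Human cancer cell lines in 384-well plates, medium with 10% serum, drug for 72 h over a 256-fold dose range (nine 2-fold or five 4-fold steps up to the top dose). Adherent lines were fixed and stained with the nucleic acid dye Syto60, suspension lines read with resazurin; signal relative to control wells, capped at 0 and 100%. One two-parameter sigmoid per drug and line, fitted in a mixed model over all curves with the slope shared within a line.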

[2] = compound: CCc1c2c(nc3ccc(O)cc13)-c1cc3c(c(=O)n1C2)COC(=O)[C@]3(O)CC [SN-38]; conditions: top dose 0.05 µM; top dose inferred
Experimental: as §1

[3] = compound: CN(Cc1cnc2nc(N)nc(N)c2n1)c1ccc(C(=O)N[C@@H](CCC(=O)O)C(=O)O)cc1 [Methotrexate]; conditions: top dose 0.2 µM
Experimental: as §1

[4] = compound: CNC(=O)c1ccccc1Sc1ccc2c(/C=C/c3ccccn3)n[nH]c2c1 [Axitinib]; conditions: top dose 2 µM
Experimental: as §1

[5] = compound: O=C(CCCCCCC(=O)Nc1ccccc1)NO [Vorinostat]; conditions: top dose 10 µM
Experimental: as §1

## BHT-101 (thyroid, adherent)
[1]
  AUC: 0.115
  IC50: < 39.1 nM
[2]
  AUC: 0.558
  IC50: 4.53 nM
[3]
  AUC: 0.985
  IC50: > 200 nM
[4]
  AUC: 0.956
  IC50: > 2000 nM
[5]
  AUC: 0.361
  IC50: 254 nM

## BICR10 (head and neck, adherent)
[1]
  AUC: 0.956
  IC50: > 10000 nM
[2]
  AUC: 0.769
  IC50: 21.7 nM
[3]
  AUC: 0.981
  IC50: > 200 nM
[4]
  AUC: 0.92
  IC50: > 2000 nM
[5]
  AUC: 0.686
  IC50: 2260 nM

## BICR22 (head and neck, adherent)
[1]
  AUC: 0.962
  IC50: > 10000 nM
[2]
  AUC: 0.44
  IC50: 2.09 nM
[3]
  AUC: 0.958
  IC50: > 200 nM
[4]
  AUC: 0.885
  IC50: > 2000 nM
[5]
  AUC: 0.546
  IC50: 849 nM

## BICR78 (head and neck, adherent)
[1]
  AUC: 0.935
  IC50: > 10000 nM
[2]
  AUC: 0.513
  IC50: 3.42 nM
[3]
  AUC: 0.971
  IC50: > 200 nM
[4]
  AUC: 0.854
  IC50: 1970 nM
[5]
  AUC: 0.487
  IC50: 572 nM

## BL-41 (Burkitt lymphoma, suspension)
[1]
  AUC: 0.975
  IC50: > 10000 nM
[2]
  AUC: 0.407
  IC50: 1.85 nM
[3]
  AUC: 0.447
  IC50: 9.3 nM
[4]
  AUC: 0.888
  IC50: 1340 nM
[5]
  AUC: 0.516
  IC50: 683 nM

## BT-483 (breast, adherent)
[1]
  AUC: 0.971
  IC50: > 10000 nM
[2]
  AUC: 0.934
  IC50: > 50 nM
[3]
  AUC: 0.977
  IC50: > 200 nM
[4]
  AUC: 0.974
  IC50: > 2000 nM
[5]
  AUC: 0.831
  IC50: > 10000 nM

## BV-173 (chronic myeloid leukaemia, suspension)
[1]
  AUC: 0.53
  IC50: 747 nM
[2]
  AUC: 0.342
  IC50: 1.21 nM
[3]
  AUC: 0.45
  IC50: 9.31 nM
[4]
  AUC: 0.512
  IC50: 134 nM
[5]
  AUC: 0.309
  IC50: 197 nM

## Becker (glioma, adherent)
[1]
  AUC: 0.981
  IC50: > 10000 nM
[2]
  AUC: 0.542
  IC50: 4.12 nM
[3]
  AUC: 0.972
  IC50: > 200 nM
[4]
  AUC: 0.932
  IC50: > 2000 nM
[5]
  AUC: 0.791
  IC50: 5140 nM

## C2BBe1 (large intestine, adherent)
[1]
  AUC: 0.984
  IC50: > 10000 nM
[2]
  AUC: 0.956
  IC50: > 50 nM
[3]
  AUC: 0.944
  IC50: > 200 nM
[4]
  AUC: 0.969
  IC50: > 2000 nM
[5]
  AUC: 0.472
  IC50: 519 nM

## C32 (melanoma, adherent)
[1]
  AUC: 0.08
  IC50: < 39.1 nM
[2]
  AUC: 0.561
  IC50: 4.64 nM
[3]
  AUC: 0.965
  IC50: > 200 nM
[4]
  AUC: 0.878
  IC50: > 2000 nM
[5]
  AUC: 0.905
  IC50: > 10000 nM

## CADO-ES1 (Ewing sarcoma, suspension)
[1]
  AUC: 0.958
  IC50: > 10000 nM
[2]
  AUC: 0.538
  IC50: 3.97 nM
[3]
  AUC: 0.925
  IC50: > 200 nM
[4]
  AUC: 0.986
  IC50: > 2000 nM
[5]
  AUC: 0.687
  IC50: 2110 nM

## CAL-29 (bladder, adherent)
[1]
  AUC: 0.904
  IC50: > 10000 nM
[2]
  AUC: 0.463
  IC50: 2.45 nM
[3]
  AUC: 0.97
  IC50: > 200 nM
[4]
  AUC: 0.935
  IC50: > 2000 nM
[5]
  AUC: 0.698
  IC50: 2370 nM

## CAL-39 (cervix, adherent)
[1]
  AUC: 0.935
  IC50: > 10000 nM
[2]
  AUC: 0.643
  IC50: 7.89 nM
[3]
  AUC: 0.986
  IC50: > 200 nM
[4]
  AUC: 0.975
  IC50: > 2000 nM
[5]
  AUC: 0.708
  IC50: 2480 nM

## CAL-51 (breast, adherent)
[1]
  AUC: 0.833
  IC50: 5300 nM
[2]
  AUC: 0.445
  IC50: 2.27 nM
[3]
  AUC: 0.972
  IC50: > 200 nM
[4]
  AUC: 0.944
  IC50: > 2000 nM
[5]
  AUC: 0.715
  IC50: 2300 nM

## CAL-72 (osteosarcoma, adherent)
[1]
  AUC: 0.911
  IC50: > 10000 nM
[2]
  AUC: 0.617
  IC50: 6.95 nM
[3]
  AUC: 0.917
  IC50: > 200 nM
[4]
  AUC: 0.945
  IC50: > 2000 nM
[5]
  AUC: 0.738
  IC50: 3440 nM

## CAL-85-1 (breast, adherent)
[1]
  AUC: 0.973
  IC50: > 10000 nM
[2]
  AUC: 0.765
  IC50: 23.5 nM
[3]
  AUC: 0.975
  IC50: > 200 nM
[4]
  AUC: 0.976
  IC50: > 2000 nM
[5]
  AUC: 0.865
  IC50: > 10000 nM

## CAL-120 (breast, adherent)
[1]
  AUC: 0.752
  IC50: 4180 nM
[2]
  AUC: 0.692
  IC50: 12.8 nM
[3]
  AUC: 0.98
  IC50: > 200 nM
[4]
  AUC: 0.974
  IC50: > 2000 nM
[5]
  AUC: 0.785
  IC50: 5690 nM

## CAS-1 (glioma, adherent)
[1]
  AUC: 0.978
  IC50: > 10000 nM
[2]
  AUC: 0.872
  IC50: > 50 nM
[3]
  AUC: 0.981
  IC50: > 200 nM
[4]
  AUC: 0.924
  IC50: > 2000 nM
[5]
  AUC: 0.892
  IC50: > 10000 nM

## CCF-STTG1 (glioma, adherent)
[1]
  AUC: 0.987
  IC50: > 10000 nM
[2]
  AUC: 0.687
  IC50: 10.5 nM
[3]
  AUC: 0.985
  IC50: > 200 nM
[4]
  AUC: 0.848
  IC50: 1510 nM
[5]
  AUC: 0.873
  IC50: 9730 nM

## CCK-81 (large intestine, adherent)
[1]
  AUC: 0.986
  IC50: > 10000 nM
[2]
  AUC: 0.9
  IC50: > 50 nM
[3]
  AUC: 0.949
  IC50: > 200 nM
[4]
  AUC: 0.969
  IC50: > 2000 nM
[5]
  AUC: 0.755
  IC50: 3200 nM

## CESS (acute myeloid leukaemia, suspension)
[1]
  AUC: 0.951
  IC50: > 10000 nM
[2]
  AUC: 0.496
  IC50: 3.06 nM
[3]
  AUC: 0.912
  IC50: > 200 nM
[4]
  AUC: 0.977
  IC50: > 2000 nM
[5]
  AUC: 0.794
  IC50: 3880 nM

## CGTH-W-1 (thyroid, adherent)
[1]
  AUC: 0.926
  IC50: > 10000 nM
[2]
  AUC: 0.599
  IC50: 5.82 nM
[3]
  AUC: 0.556
  IC50: 17.7 nM
[4]
  AUC: 0.141
  IC50: 9.49 nM
[5]
  AUC: 0.589
  IC50: 1090 nM

## CHL-1 (melanoma, adherent)
[1]
  AUC: 0.565
  IC50: 931 nM
[2]
  AUC: 0.424
  IC50: 1.96 nM
[3]
  AUC: 0.856
  IC50: 147 nM
[4]
  AUC: 0.962
  IC50: > 2000 nM
[5]
  AUC: 0.528
  IC50: 740 nM
